The RNAGym collection of RNA variant scans (doi:10.7554/elife.90254)
Read counts are not given, so values of variants with three or more changes are uncertain.

B1: LINE1-mini (parent)
chain: GGCAGAGCUCAACACAGCGUGGCAAAGUGGCUGUGGCUAGACUGCC

Variants of: B1
Assay: self-cleavage, relative activity (ratio to wild type); higher = more cleavage; in vitro, sequencing; the parent is a self-cleaving ribozyme

Variant	self-cleavage
G1A G19A G30C	0.65
G5A G21A U34G G40A G44A	0.03
C3U C8U G30U C31G U38A	0.16
A4U C10A G17A A26C	0.01
C18A G21U C31U U32G	0.04
U9A A12C G36U	0.01
C13A A26G G33C	0.03
C3G G5A C13U G22C	0.63
A4U A11U G19U	0
C10A G27C A41U	0
A6G G33A G44U	0.03
G7A U9G C15A C23A U28G G29U	0.02
C13A G17U A24G G36U C45A	0.04
C3G C18U G40A C45A	0.21
A25U G27U C31U	0.78
C10A G33A U34G A41G C42G	0
G5U C8G C18G	0.07
G7A G21U G30C	0.15
A14U G22U A24U	0.24
C15U G19U C31A	0.05
A14C G40U A41U	0.05

Variant	self-cleavage
A6G G27U C31U C46A	0.02
G7U U28A G36C C42G	0.03
G22U A25C U38G G40U	0.04
C31A G36U C42U	0.03
C8G A16U U28A	0.08
G1U U9A C31G	0
G2A A24G C46U	0.18
C15G G27C C45U	0.04
G2U G19A U20C G21U G27C	0.03
A4C G21C C31U G44U	0.01
A6G G33C A39C	0.04
A4U C23G G36U	0.08
A11C C18U G36A U38G	0.02
C13A C37G A39U	0.03
G5A G19A G44U	0.03
C8A A11C U20A G21C G35C	0.01
C3A A11C A16C G17U	0.01
A4G C15G A39U C45A	0.12
G5A C10A C13A G19U C31A	0.05
C3A A6C C15G G33U C45G	0
G1U A6C A26G	0.36

Variant	self-cleavage
G7U A14C G35C	0.06
C3A G7C G19A C23A	0.02
C8G A11U G22U G33A G35A	0.03
A4C G5A G19A G35U G40A	0.19
U9A C10G C15A	0.02
A24C G35U C45A	0
G2A C18G G33U	0.07
A12U A14U G22U U32A U34C C42A	0.03
C8A U9G C23U U28C	0.04
G1U G5U C10A A12U A39U G40U	0
U9C A11U U28C C31A G44A	0.01
G7C A11U G44A	0.01
C3G A4U G7A G21U C23G G30U C46U	0.04
A4G G17U G35A G40U C42U	0.05
C3G A4U A6U G22C A24C C37U	0.02
C8U G33C G40U	0.07
C8A G17U A41C	0.14
A6C A24U C42G	0.06
A12U C23G U34G G40A	0.01
C10A A12C C15G A24C	0.01
G17C C23U U32A	0.13

Variant	self-cleavage
C13G U20A G29C C42G	0.04
U32G G40U G44U	0.04
A4G G5A C45U	0.07
C8G C15A U38A A41G	0.02
G5C U32A C46A	0.04
A6U G36A A39C C42G	0.03
G5A G19U U32G G33U G44A	0.01
C10U A24G G27C	0.06
G5U A6U A25G G30U U38G	0.02
G7A C15U G29U	0.1
A4C C10U A39G	0.01
C3G G21U G29A G30A	0.29
G17A G19U G22A	1
U9A G21A U34A	0.04
G21U G27A U32C	0.11
C10A G17C U28C U34C	0
A6G C13U G30C C37U	0.1
U9G A16G C23A U32A A39G C46U	0
C10G G22C U38G G40A U43G	0
G17C A41U U43C	0.04
